Source: the supplement of paper PMC4604168 (melanoma cell lines)
The other results are listed elsewhere or left out. Most values come without repeats; read them as rough.

Legend:
Experiment in all cases: cell count relative to DMSO control; melanoma cells; higher = more viable cells
Conditions in all cases: library dose: low library concentration; 72 h; first compound 0.4 µM
[1] = system: COLO792
[2] = system: COLO800
[3] = system: COLO829
[4] = system: G361
[5] = system: IPC-298
[6] = system: IST-MEL1
[7] = system: LB2518-MEL
[8] = system: LOXIMVI
[9] = system: MEL-HO
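Also: cell number obtained by counting DAPI-stained nuclei in high-throughput microscope images with image analysis software, screen run in 1,536-well plates.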

SMILES	cell count [1] [%]	cell count [2] [%]	cell count [3] [%]	cell count [4] [%]	cell count [5] [%]	cell count [6] [%]	cell count [7] [%]	cell count [8] [%]	cell count [9] [%]
C[C@@H](N)c1ccc(C(=O)Nc2ccnc3[nH]ccc23)cc1 + COc1cc(Nc2ncc(F)c(Nc3ccc4c(n3)NC(=O)C(C)(C)O4)n2)cc(OC)c1OC [Tamatinib] (partner dose 0.4 µM)	40.8	170	93.6	92.4	79.2	88.4	78.5	103	67.3
Cn1sc(=O)n(Cc2ccccc2)c1=O + Cn1cncc1[C@@](N)(c1ccc(Cl)cc1)c1ccc2c(c1)c(-c1cccc(Cl)c1)cc(=O)n2C [tipifarnib] (partner dose 0.01 µM)	94.1	110	90	84	93.7	101	69.5	111	105
C[C@@H](N)c1ccc(C(=O)Nc2ccnc3[nH]ccc23)cc1 + C[C@@H]1CCN(C(=O)CC#N)C[C@@H]1N(C)c1ncnc2[nH]ccc12 [CP690550] (partner dose 1 µM)	87.7	195	99.9	122	106	110	122	67.1	55.7
C[C@@H](N)c1ccc(C(=O)Nc2ccnc3[nH]ccc23)cc1 + O=S(=O)(c1ccccc1)N(CC(F)(F)F)c1ccc(C(O)(C(F)(F)F)C(F)(F)F)cc1 [T0901317] (partner dose 1.4 µM)	94.4	86.3	87.8	90.7	91.1	99.3	87.2	77.9	60.2
C[C@@H](N)c1ccc(C(=O)Nc2ccnc3[nH]ccc23)cc1 + Cn1cncc1[C@@](N)(c1ccc(Cl)cc1)c1ccc2c(c1)c(-c1cccc(Cl)c1)cc(=O)n2C [tipifarnib] (partner dose 0.01 µM)	96.1	126	73.5	102	107	101	85.9	64.3	65.8
CCCCCCCCCCCCCCCCCCOP(=O)([O-])OC1CC[N+](C)(C)CC1 [Perifosine] + O=C(O)c1ccc(-c2c[nH]c3ncc(-c4ccccc4)cc23)cc1C1CCCC1 [GSK650394] (partner dose 0.16 µM)	100	109	72.2	94.5	99.8	96.6	106	105	96
Cn1sc(=O)n(Cc2ccccc2)c1=O + COc1cc2c(Oc3ccc4[nH]c(C)cc4c3F)ncnc2cc1OCCCN1CCCC1 [cediranib] (partner dose 0.4 µM)	85.6	82	79.8	132	92.2	114	110	156	111
CCCCCCCCCCCCCCCCCCOP(=O)([O-])OC1CC[N+](C)(C)CC1 [Perifosine] + Cn1cncc1[C@@](N)(c1ccc(Cl)cc1)c1ccc2c(c1)c(-c1cccc(Cl)c1)cc(=O)n2C [tipifarnib] (partner dose 0.01 µM)	85.2	93.9	94.9	103	89.1	92.8	–	128	90.4
C[C@@H](N)c1ccc(C(=O)Nc2ccnc3[nH]ccc23)cc1 + O=C(O)c1ccc(-c2c[nH]c3ncc(-c4ccccc4)cc23)cc1C1CCCC1 [GSK650394] (partner dose 0.16 µM)	98.1	83.1	97.6	116	103	92.4	95.5	62.5	70.4
Cn1sc(=O)n(Cc2ccccc2)c1=O + NCC(=O)Nc1ccc(-n2nc(C(F)(F)F)cc2-c2ccc3c(ccc4ccccc43)c2)cc1 [OSU03012] (partner dose 1 µM)	94.1	66.8	92.4	96	76.7	99	–	109	99.2
Cn1sc(=O)n(Cc2ccccc2)c1=O + COc1cc(N2CCC(N3CCN(C)CC3)CC2)ccc1Nc1ncc(Cl)c(Nc2ccccc2S(=O)(=O)C(C)C)n1 [NVP-TAE684] (partner dose 0.08 µM)	87.9	99.4	131	91.9	103	105	121	107	103
CCCCCCCCCCCCCCCCCCOP(=O)([O-])OC1CC[N+](C)(C)CC1 [Perifosine] + COc1ccc(COc2ccc(Cc3cnc(N)nc3N)cc2OC)cc1 [GW2580] (partner dose 1 µM)	118	89.8	115	98.2	99.3	105	105	82.2	109
Cn1sc(=O)n(Cc2ccccc2)c1=O + OCCn1cc(-c2cnc3nnn(Cc4ccc5ncccc5c4)c3n2)cn1 [PF04217903] (partner dose 1 µM)	92.2	100	107	117	102	109	108	85.2	89.9
CCCCCCCCCCCCCCCCCCOP(=O)([O-])OC1CC[N+](C)(C)CC1 [Perifosine] + COc1cc2ncnc(Nc3ccc(Oc4ccccc4)cc3)c2cc1OC [SrcI1] (partner dose 2 µM)	107	135	104	98.2	94.3	107	115	143	98.8
Cn1sc(=O)n(Cc2ccccc2)c1=O + COc1ccc(COc2ccc(Cc3cnc(N)nc3N)cc2OC)cc1 [GW2580] (partner dose 1 µM)	90.8	90.3	96.1	98.8	102	98	97.7	67.7	104
CCCCCCCCCCCCCCCCCCOP(=O)([O-])OC1CC[N+](C)(C)CC1 [Perifosine] + C=CCn1c(=O)c2cnc(Nc3ccc(N4CCN(C)CC4)cc3)nc2n1-c1cccc(C(C)(C)O)n1 [MK1775] (partner dose 0.02 µM)	92.1	66.6	88.6	95.2	93.8	97.4	81.2	101	85.2
C[C@@H](N)c1ccc(C(=O)Nc2ccnc3[nH]ccc23)cc1 + O=C1NC(=O)/C(=C/c2ccc(-c3ccc(F)cc3O)o2)S1 [AS252424] (partner dose 1 µM)	108	118	116	99.2	107	106	70.6	157	71.5
C[C@@H](N)c1ccc(C(=O)Nc2ccnc3[nH]ccc23)cc1 + Oc1cc(-c2nc(-c3ccccc3)[nH]c2-c2ccncc2)ccc1Cl [L779450] (partner dose 0.2 µM)	99.8	149	130	91.9	91.6	101	107	78.9	66.4
CCCCCCCCCCCCCCCCCCOP(=O)([O-])OC1CC[N+](C)(C)CC1 [Perifosine] + NC(=O)Nc1cc(-c2cccc(F)c2)sc1C(=O)N[C@H]1CCCNC1 [AZD7762] (partner dose 0.02 µM)	101	99.2	113	121	113	116	162	182	94.4
C[C@@H](N)c1ccc(C(=O)Nc2ccnc3[nH]ccc23)cc1 + Cc1cc([N+](=O)[O-])ccc1NS(=O)(=O)c1cc(Cl)ccc1Cl [FH535] (partner dose 1 µM)	98.8	109	102	100	98.7	91.6	94.4	86.2	87.6
C[C@@H](N)c1ccc(C(=O)Nc2ccnc3[nH]ccc23)cc1 + C=CCn1c(=O)c2cnc(Nc3ccc(N4CCN(C)CC4)cc3)nc2n1-c1cccc(C(C)(C)O)n1 [MK1775] (partner dose 0.02 µM)	85.1	141	98.6	80.1	101	94.8	87.6	126	77.9
C[C@@H](N)c1ccc(C(=O)Nc2ccnc3[nH]ccc23)cc1 + CN(NC(=O)CC(=O)NN(C)C(=S)c1ccccc1)C(=S)c1ccccc1 [STA4783] (partner dose 0.006 µM)	62.5	66.3	64.7	70.9	110	80.4	69.3	260	69.2
CCCCCCCCCCCCCCCCCCOP(=O)([O-])OC1CC[N+](C)(C)CC1 [Perifosine] + Cc1cc([N+](=O)[O-])ccc1NS(=O)(=O)c1cc(Cl)ccc1Cl [FH535] (partner dose 1 µM)	84.6	128	98.1	107	88.8	85.7	96.7	133	89.2
C[C@@H](N)c1ccc(C(=O)Nc2ccnc3[nH]ccc23)cc1 + O=C(CCCCCCC(=O)Nc1ccccc1)NO [vorinostat] (partner dose 0.08 µM)	83.7	114	104	102	101	94	100	78.5	71.9
CCCCCCCCCCCCCCCCCCOP(=O)([O-])OC1CC[N+](C)(C)CC1 [Perifosine] + CC(C)CCN1c2nc(Nc3cc(F)c(O)c(F)c3)ncc2N(C)C(=O)C1C [BID1870] (partner dose 0.2 µM)	85	87.4	122	90.8	94.1	91.4	101	113	102
Cn1sc(=O)n(Cc2ccccc2)c1=O + Cc1ccc(NC(=O)c2cccc(N(C)C)c2)cc1NC(=O)c1ccc(O)cc1 [ZM336372] (partner dose 2 µM)	88.1	130	100	96.2	87	92.4	84.8	100	86.5
CCCCCCCCCCCCCCCCCCOP(=O)([O-])OC1CC[N+](C)(C)CC1 [Perifosine] + CO[C@@H]1[C@H](N(C)C(=O)c2ccccc2)C[C@H]2O[C@]1(C)n1c3ccccc3c3c4c(c5c6ccccc6n2c5c31)C(=O)NC4 [Midostaurin] (partner dose 0.08 µM)	89.2	83.4	99.1	102	96.1	96.7	83.7	104	99
CCCCCCCCCCCCCCCCCCOP(=O)([O-])OC1CC[N+](C)(C)CC1 [Perifosine] + CC(C)(C)c1cnc(CSc2cnc(NC(=O)C3CCNCC3)s2)o1 [SNS-032] (partner dose 0.01 µM)	93.9	82.3	92.5	71.3	104	98.2	93.1	99	96.7
